In PubChem BioAssay AID1347073 (National Center for Advancing Translational Sciences (NCATS), 2019):
Out of some 45,000 compounds screened, about 200 (0.44%) were called active. Roughly 7% stayed inconclusive and do not appear here. Calls follow the shape of the dose curve; as a rule, active = well fitted activation curve with a large enough effect; inconclusive = small, poorly fitted or top-dose-only effect; inactive = no such curve, though single readings can be large or run the other way. This is one part of the list.

assay: qHTS of TDP-43 Inhibitors: NCGC Sytravon Library Screen; settings: yeast TDP-43 toxicity rescue, BacTiter-Glo growth, 24 h; series mostly up to 46.1 µM; growth rescue (activation): at the top concentration; also: nearly all actives have a fitted effect of over 55% in size; as to growth rescue (activation): 0% is about no effect
Method in brief: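 TDP-43-expressing yeast, pregrown in raffinose, seeded at OD600 0.02 in galactose medium with compound for 24 hr at 30 deg C. Growth read by BacTiter-Glo luminescence, so rescue of toxicity appears as activation.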
Potency is read from the fitted curve at half-maximal effect.

| Structure (SMILES) | growth rescue (activation) | Potency |
| --- | --- | --- |
| CN(CC(=O)Nc1ccc(F)cc1)C(=O)CCc1ccccc1 | inactive: 6.79% | – |
| COc1ccc(CN=C2NN=C(c3ccccc3)CS2)cc1 | inactive: 11.7% | – |
| CCCn1c(N)c(C(=O)CN(C)CC(=O)Nc2cc(C)ccc2C)c(=O)[nH]c1=O | inactive: 8.99% | – |
| OCC#Cc1cnc2ccccc2c1 | inactive: -18.3% | – |
| O=C(c1c[nH]c(C(=O)N2CCN(c3ccccc3F)CC2)c1)c1cccc(Cl)c1Cl | – | active: 20 µM |
| CC(=O)c1cccc(N(CC(=O)NC2CCCCC2)C(=O)CNC(=O)c2cccs2)c1 | inactive: 9.67% | – |
| Cc1ccc(C)c(N2CCN(c3nc4ccc(Cl)cc4n4cnnc34)CC2)c1 | inactive: 13.8% | – |
| COc1ccc(/C=C/C(=O)N(C)C2CCS(=O)(=O)C2)cc1OC (stereo not drawn) | inactive: 2.18% | – |
| CCOc1ccccc1NC(=O)c1ccccc1NC(=O)c1ccco1 | inactive: 8.56% | – |
| Cc1ccnc(SCC(=O)N2CCc3ccccc3C2)n1 | inactive: 12.1% | – |
| COc1ccc(CC(=O)Nc2ccc(F)c(F)c2F)cc1S(=O)(=O)N1CCOCC1 | inactive: 21% | – |
| COC(=O)c1ccc(CNC(=O)C(NC(=O)c2ccco2)C(C)C)cc1 (stereo not drawn) | inactive: 10.5% | – |
| O=C(CSc1n[nH]c(-c2ccncc2)n1)Nc1ccc(Br)cc1 | inactive: 14.8% | – |
| O=C(CN1CCC2(CC1)OCCO2)c1c[nH]c2ccccc12 | inactive: 7.73% | – |
| ClC(/C=N/n1cnnc1)=C/c1ccccc1 | inactive: -8.87% | – |
| CN(Cc1nc(-c2cccs2)no1)CC(O)c1ccccc1 (stereo not drawn) | inactive: 6.88% | – |
| COc1ccccc1C(=O)COC(=O)C1(C)CC1(Cl)Cl (stereo not drawn) | inactive: 3.72% | – |
| Cc1ccc(C(=O)OCC(=O)N2CCOCC2)c(C)c1 | inactive: 7.82% | – |
| Cc1ccc(C2=NN(C(=O)CCC(=O)O)C(c3cccc([N+](=O)[O-])c3)C2)cc1 (stereo not drawn) | inactive: -10.7% | – |
| CSc1ncccc1C(=O)NCCc1ccccc1 | inactive: 17.6% | – |
| CC12CCC(=O)N1C(C(=O)OCC(=O)Nc1cccc(Br)c1)CS2 (stereo not drawn) | inactive: 3.15% | – |
| Cc1ccc2c(c1)N(CC(=O)Nc1ccccc1F)C(=O)C(C)O2 (stereo not drawn) | inactive: 1.43% | – |

| Structure (SMILES) | growth rescue (activation) | Potency |
| --- | --- | --- |
| O=C(O)C1C2CCC(C2)C1C(=O)NCc1ccco1 (stereo not drawn) | inactive: -2.48% | – |
| CCn1c(SCC(=O)Nc2nnc(C)s2)nnc1C(C)NC(=O)c1ccccc1 (stereo not drawn) | inactive: -13.4% | – |
| O=C(C1=C(O)C(=O)N(Cc2ccco2)C1c1cccs1)c1cccs1 (stereo not drawn) | inactive: -1.18% | – |
| O=C(Nc1ccc(Cl)c(S(=O)(=O)N2CCOCC2)c1)c1cccs1 | inactive: -18.4% | – |
| COC(=O)c1ccc(N2Cc3ccccc3/C2=N\C(=O)Nc2ccccc2)cc1 | inactive: 23.9% | – |
| CN(CCNC(=O)C1CCC(=O)N(Cc2cccc(F)c2)C1)CCc1ccccc1 (stereo not drawn) | inactive: 18.7% | – |
| CCOc1ccc(NCc2cccn2-c2nnc(N3CCC(C(=O)NCc4cccc(OC)c4)CC3)s2)cc1 | inactive: 3.09% | – |
| O=C(N/N=C/c1ccsc1)c1ccc2ccccc2n1 | inactive: 8.62% | – |
| COc1cccc(CN(C)S(=O)(=O)c2c(C)noc2C)c1OC | inactive: 24.9% | – |
| CC1=NNC(=O)C1CCC(=O)N/N=C/c1ccc(C)cc1 (stereo not drawn) | inactive: 29.3% | – |
| N#Cc1ccccc1Sc1ccccc1C(=O)OCC(=O)NC1CCCCC1 | inactive: -9.61% | – |
| CSc1ccccc1NC(=O)CN(C)CC(=O)c1[nH]c(C)c(C(C)=O)c1C | inactive: 1.13% | – |
| CCCCCN1CN(S(=O)(=O)c2cccs2)c2nc3ccccc3nc21 | inactive: -5.51% | – |
| O=c1c2[nH]c3ccc(F)cc3c2ncn1Cc1ccncc1 | inactive: -2.34% | – |
| OCCC1CN(Cc2cccc(O)c2)CCN1CCc1ccccc1 (stereo not drawn) | inactive: -25.6% | – |
| Cc1ccc(CNC(=O)c2cnccn2)cc1 | inactive: 8.54% | – |
| CC(Sc1ncccn1)C(=O)Nc1ccc2c(c1)OCCO2 (stereo not drawn) | inactive: -20.9% | – |
| Cc1n[nH]c(C)c1CN(C)C(=O)c1cc(COc2ccc(F)c(F)c2)on1 | inactive: 6.25% | – |
| O=C(O)c1ccc(N2C(=O)/C(=C\c3ccccc3)N=C2c2ccccc2)cc1 | inactive: 5.59% | – |
| O=C(CN1CCC(n2nnc3cc(C(F)(F)F)ccc32)CC1)NCc1cccs1 | inactive: 13.6% | – |
| O=C(CO/N=C/c1ccccc1Cl)N1CCCc2ccccc21 | inactive: 13% | – |
| COc1ccc(CNC(=O)C2CCN(S(=O)(=O)c3ccc4nc5c(c(C(=O)O)c4c3)CC(C)CC5)CC2)cc1 (stereo not drawn) | inactive: 0.13% | – |

| Structure (SMILES) | growth rescue (activation) | Potency |
| --- | --- | --- |
| O=C(CCNS(=O)(=O)c1ccc(Br)s1)NCc1ccccc1 | inactive: -0.151% | – |
| Fc1ccc(-c2cnc3n2CCCCC3)cc1 | inactive: 5.65% | – |
| CCc1ccc(NC(=O)c2c(C(=O)Nc3ccccc3)sc3nc(C)cc(=O)n23)cc1 | inactive: 4.75% | – |
| CCc1ccc(Oc2coc3cc(OCC(=O)Nc4cc(C)ccc4C)ccc3c2=O)cc1 | inactive: -9.23% | – |
| O=C(CNC(=O)c1ccccc1)Oc1ccc([N+](=O)[O-])cc1 | inactive: -8.18% | – |
| COc1cccc(Nc2n[nH]c(=S)s2)c1 | inactive: 20.6% | – |
| N#Cc1c(Sc2ncc(C(F)(F)F)cc2Cl)nsc1C/C=N\OCc1c(F)cccc1Cl | inactive: 6.54% | – |
| CCC(C)NC(=O)CN(c1ccc(Cl)c(Cl)c1)S(C)(=O)=O (stereo not drawn) | inactive: 12.2% | – |
| COc1cccc(-c2cc(C(=O)N3CCN(c4ccc(F)cc4)CC3)no2)c1 | inactive: 4.44% | – |
| O=C(CSc1nc(-c2ccco2)cc(C(F)(F)F)n1)NCCc1ccccc1 | inactive: 16.4% | – |
| O=c1c2sccc2n(Cc2cc(=O)n3ccccc3n2)c(=O)n1-c1cccc(C(F)(F)F)c1 | inactive: 21% | – |
| O=C(NCc1cccs1)C1CC(=O)N(Cc2ccccc2)C1 (stereo not drawn) | inactive: -23.6% | – |
| O=CNc1cc(-c2ccc(C(=O)N3CCOCC3)cc2)cn2c(-c3ccc(F)cc3)cnc12 | inactive: -1.4% | – |
| O=C(Nc1ccc2c(c1)CCC2)c1cccc(S(=O)(=O)Nc2ccccc2Cl)c1 | inactive: 32.6% | – |
| CC(C)(CNC(=O)CNC(=O)c1ccc(Cl)cc1Cl)N1CCOCC1 | inactive: 19.5% | – |
| CC(C)(C)c1ccc(CSc2nnc(-c3ccccn3)n2Cc2ccco2)cc1 | inactive: 15.7% | – |
| O=C(CCCOC(=O)c1ccc(O)cc1)c1ccccc1 | inactive: 20.9% | – |
| CSc1ccccc1CNc1nc(NCC2CC2)nc2ccsc12 | inactive: 17.3% | – |
| CCCN1CCC(NC(=O)CCc2nnc(-c3ccccc3)o2)CC1 | inactive: 6.59% | – |
| O=C(O)c1ccc(COc2ccccc2/C=C2/NC(=O)N(c3cccc(Cl)c3)C2=O)cc1 | inactive: 2.93% | – |
| Cc1cc(C(=O)COc2ccccc2[N+](=O)[O-])c(C)n1-c1cccc(S(=O)(=O)N2CCOCC2)c1 | inactive: 5.87% | – |
| COc1cc(-c2cc(NC=O)c3ncc(-c4ccc(C(C)=O)cc4)n3c2)ccc1O | inactive: -1.71% | – |

| Structure (SMILES) | growth rescue (activation) | Potency |
| --- | --- | --- |
| Cc1cc(C)n(-c2ccc(C(=O)NCCCN3CCOCC3)cc2)n1 | inactive: 2.63% | – |
| CC(=O)c1cccc(S(=O)(=O)NC(C)C2CC3CCC2C3)c1 (stereo not drawn) | inactive: 19.4% | – |
| CN(C(=O)COc1ccc([N+](=O)[O-])cc1)C1CCS(=O)(=O)C1 (stereo not drawn) | inactive: 2.46% | – |
| COC(=O)c1sc2nc(C)cc(-c3ccccc3)c2c1N | inactive: 23.6% | – |
| Cc1cc(C)nc(NNC(=O)c2ccccc2O)n1 | inactive: -7.12% | – |
| CCOC(=O)CSc1cc(CS(C)(=O)=O)nc(-c2ccccn2)n1 | inactive: 0.481% | – |
| CC(=O)c1cccc(NC(=O)COc2ccccc2C(=O)c2cc(C#N)c(=O)n(C3CCCCC3)c2)c1 | inactive: -5.89% | – |
| COc1cc(NC(=O)COC(=O)c2[nH]c(C)c(C(C)=O)c2C)cc(OC)c1 | inactive: 17.2% | – |
| Cn1c(-c2cccc([N+](=O)[O-])c2)cnc1NCc1cccc([N+](=O)[O-])c1 | inactive: 2.19% | – |
| COC(=O)C(C(=O)OC)c1ccc(-n2cccc2)cc1 | inactive: 13.2% | – |
| CCn1c(=O)c(C(=O)Nc2ccccn2)c(O)c2ccccc21 | inactive: -5.58% | – |
| CCOC(=O)N1CCC(N2Cc3cccc(C(=O)N4CCN(c5cccc(C)c5C)CC4)c3C2=O)CC1 | inactive: 9.47% | – |
| CSc1ccc(CN(C)C(=O)CNC(=O)CNS(=O)(=O)c2ccc(C)c(C)c2)cc1 | inactive: 1.69% | – |
| COc1ccc2ccccc2c1CNC(=O)CC1C(=O)NCCN1CC(C)C (stereo not drawn) | inactive: 6.19% | – |
| Cc1c(F)cccc1NS(=O)(=O)c1ccc2c(c1)n(C)c(=O)c(=O)n2C | inactive: -14.1% | – |
| Cc1ccc(NC(=O)COC(=O)c2ccc(-n3nc(C)cc3C)cc2)c(F)c1 | inactive: 9.76% | – |
| CC(NC(=O)C(Cc1ccccc1)n1cccc1)c1ccccc1 (stereo not drawn) | inactive: 22.7% | – |
| Fc1ccc(-c2nnc(SCc3cccnc3)o2)cc1 | inactive: 9.38% | – |
| CCC(C)NCCCOc1c(C)cc(C)cc1Br (stereo not drawn) | inactive: -17.7% | – |
| c1ccc(-c2cc3nc(NCC4CC4)nc(NCC4CCCCC4)c3s2)cc1 | inactive: 18.4% | – |
| Cc1c(NC(=O)CCSCCc2ccccn2)cccc1[N+](=O)[O-] | inactive: 1.48% | – |
| O=C(CSc1nc2ccccc2[nH]1)N/N=C/c1ccncc1 | inactive: 11.3% | – |

| Structure (SMILES) | growth rescue (activation) | Potency |
| --- | --- | --- |
| O=C(NNC(=S)NC(=O)c1ccc(F)cc1)c1cccnc1 | inactive: -1.61% | – |
| CC(C)OCCCNC(=S)NNC(=O)C(c1ccccc1)c1ccccc1 | inactive: 5.55% | – |
| COc1ccc(NC(=O)c2cc(-c3ccccn3)nc3ccccc23)c(OC)c1 | inactive: 9.08% | – |
| CN1CCN(c2ncnc3c2ncn3[C@H]2CN(Cc3ccccc3)C[C@@H](CO)O2)CC1 | inactive: 5.88% | – |
| Cc1cccc(-c2nc(S(=O)(=O)c3ccccc3)c(N3CCOCC3)o2)c1 | inactive: 14.5% | – |
| O=S(=O)(/N=C(/NC(=S)Nc1ccccc1)c1ccccc1)c1ccc(Cl)cc1 | inactive: 28.7% | – |
| N#Cc1ccc(CSc2nnc3[nH]c(=O)cc(N)n23)cc1 | inactive: -14.9% | – |
| O=c1c2ccccc2[nH]c(=S)n1CCC1=CCCCC1 | inactive: 6.12% | – |
| CC1(C)Cc2ccccc2-c2[nH]c(=S)[nH]c(=O)c21 | inactive: 24.7% | – |
| CC(/C=C1\SC(=O)N(CCCC(=O)O)C1=O)=C\c1ccccc1 | inactive: 7.44% | – |
| S=C(NCc1ccncc1)Nc1ccc(Cl)c(Cl)c1 | inactive: 9.28% | – |
| Cn1c(-c2cccc([N+](=O)[O-])c2)cnc1NCc1ccc(C#N)cc1 | inactive: 3.65% | – |
| NC(=O)C1CCN(C(=O)CSc2nc(O)cc(=O)[nH]2)CC1 | inactive: 1.1% | – |
| CCNC(=O)c1ccc(C23CC4CC(CC(C4)C2)C3)o1 | inactive: 7.33% | – |
| COc1ccccc1CNc1nc(NC(C)C)nc2cc(-c3ccccc3)sc12 | inactive: 11.8% | – |
| COc1ccc(Cl)cc1NC(=O)CN1CCC(NC(=O)C2CC2)CC1 | inactive: -9.5% | – |
| O=C(O)c1ccc(C2SCC(=O)N2Cc2ccccc2)cc1 (stereo not drawn) | inactive: 16.6% | – |
| COc1ccc2c(-c3ccccc3)cc(SCC(=O)NC3CCS(=O)(=O)C3)nc2c1 (stereo not drawn) | inactive: -1.68% | – |
| Cc1sc2nc(COC(=O)c3ccc(N4CCCC(C)C4)c([N+](=O)[O-])c3)[nH]c(=O)c2c1C (stereo not drawn) | inactive: 10.4% | – |
| CC1(C(=O)NS(=O)(=O)c2ccc(Br)cc2)CCN1C(=O)C/C=C/c1ccccc1 (stereo not drawn) | inactive: -8.49% | – |
